Measured values taken from the supplement of paper PMC9446081.
About 220 (0.56%) of roughly 39,000 compounds showed activity. Some of the results follow.
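Also: static incubation at 37 °C against the wild-type strain, values averaged over two biological replicates.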

These molecules were tested on Escherichia coli K-12 BW25113 (assay: relative growth (OD600 normalised to plate interquartile mean) (fraction); higher = less growth inhibition, active = 0.2 or less). Conditions: 50 µM; LB; incubation time: overnight (16-24 h).
`Cc1ccc(S(=O)(=O)N(C)C[C@@H]2Oc3ncc(C#CCN(C)C)cc3C(=O)N([C@H](C)CO)C[C@@H]2C)cc1` was tested, and the relative growth was inactive: 0.991.
`C[C@H](NC(=O)C[C@H]1C[C@H]2c3cc(NC(=O)Nc4ccc(C(F)(F)F)cc4)ccc3O[C@H]2[C@@H](CO)O1)c1ccccc1` was tested, and the relative growth was inactive: 1.
`Nc1ccc(-n2cc(CCC(=O)NO)nn2)cc1` was tested, and the relative growth was inactive: 0.99.
For `O=C(NCCN1CCCC1)[C@@H]1N[C@@H]2c3ccc(-c4ccccc4)c(=O)n3C[C@@H]2[C@H]1CO`, the relative growth was inactive: 0.992.
For `OCCN(CCO)c1nc(N2CCCCC2)c2nc(N(CCO)CCO)nc(N3CCCCC3)c2n1`, the relative growth was inactive: 1.14.
For `C[C@H](CO)N1C[C@H](C)[C@H](CN(C)S(=O)(=O)c2ccc(F)cc2)Oc2ncc(-c3ccccc3)cc2C1=O`, the relative growth was inactive: 0.995.
In the case of `Nc1nc(=O)c2ncn(COC(CO)CO)c2[nH]1`, the relative growth is reported as inactive: 0.996.
For `Cc1noc(C)c1NC(=O)N(C)C[C@H]1Oc2c(NC(=O)c3ccncc3)cccc2C(=O)N([C@H](C)CO)C[C@H]1C`, the relative growth was inactive: 1.01.
In the case of `C[C@@H]1CN([C@@H](C)CO)C(=O)c2cccc(NC(=O)Nc3ccccc3)c2O[C@H]1CN(C)C(=O)Nc1cccc2ccccc12`, the relative growth is reported as inactive: 0.984.
`CCCNC(C)(C)COC(=O)c1ccccc1.Cl` was tested, and the relative growth was inactive: 1.03.
`NC1(C(=O)O)CCCC1` was tested, and the relative growth was inactive: 1.
`CCC(=O)Nc1nn2c(C)nnc2s1` was tested, and the relative growth was inactive: 1.02.
In the case of `CN(C)[C@@H]1C(=O)[C@@H](C(=O)NCNCCCC[C@H](N)C(=O)O)C(=O)[C@@]2(O)C(=O)[C@@H]3C(=O)c4c(O)cccc4[C@@](C)(O)[C@H]3C[C@@H]12`, the relative growth is reported as inactive: 0.977.
With `C[C@@H]1CCCCO[C@@H](CN(C)Cc2ccccc2)[C@@H](C)CN([C@H](C)CO)C(=O)c2cc(NC(=O)Nc3ccc(F)cc3)ccc2O1` the relative growth was inactive: 0.948.
`COc1ccc(NC(=O)N(C)C[C@@H]2Oc3ncc(-c4cccc(C(F)(F)F)c4)cc3C(=O)N([C@H](C)CO)C[C@@H]2C)cc1` was tested, and the relative growth was inactive: 0.941.
For `C[C@@H]1CN([C@@H](C)CO)C(=O)c2c(c3ccccc3n2C)-c2ccccc2CO[C@H]1CN(C)Cc1ccc(F)cc1`, the relative growth was inactive: 0.983.
For `C[C@@H]1CCCCO[C@@H](CN(C)S(=O)(=O)c2cn(C)cn2)[C@H](C)CN([C@H](C)CO)C(=O)c2cc(NS(=O)(=O)c3cccs3)ccc2O1`, the relative growth was inactive: 0.93.
With `C[C@@H]1CN([C@H](C)CO)C(=O)c2cc(NC(=O)c3ccncc3)ccc2O[C@@H](C)CCCCO[C@H]1CN(C)S(=O)(=O)c1cn(C)cn1` the relative growth was inactive: 0.965.
With `Cc1ccc(S(=O)(=O)Nc2ccc3c(c2)CC(=O)N([C@H](C)CO)C[C@@H](C)[C@H](CN(C)S(=O)(=O)c2ccc(F)cc2)O3)cc1` the relative growth was inactive: 0.935.
`C[C@H]1CN([C@@H](C)CO)S(=O)(=O)c2ccc(C3=CCCC3)cc2O[C@@H]1CN(C)C(=O)C1CCOCC1` was tested, and the relative growth was inactive: 0.956.
With `C[C@H](N)CCC(=O)NCS(=O)(=O)O` the relative growth was inactive: 1.03.
In the case of `COc1ccc(CN(C)C[C@H]2OCCCC[C@@H](C)Oc3ccc(NC(=O)c4ccncc4)cc3C(=O)N([C@H](C)CO)C[C@H]2C)cc1`, the relative growth is reported as inactive: 1.
For `CCO[C@@H]1OC(C(=O)N2CCOCC2)=C[C@H](C2CC2)[C@H]1CCCOC(=O)NCCCCCC(=O)NO`, the relative growth was inactive: 0.984.
With `CS(=O)(=O)N1C[C@H]2CN(C(=O)c3cnccn3)C[C@@H]2C1` the relative growth was inactive: 0.982.
With `C[C@H](CO)N1C[C@H](C)[C@H](CN(C)C(=O)NC2CCCCC2)Oc2c(NC(=O)C3CC3)cccc2C1=O` the relative growth was inactive: 1.02.
For `NCc1cccc(N2CCCC2)c1`, the relative growth was inactive: 1.01.
With `O=C(C[C@H]1CC[C@@H]2[C@H](COC[C@@H](O)CN2S(=O)(=O)c2ccccc2)O1)NCc1ccc2c(c1)OCO2` the relative growth was inactive: 0.989.
With `CN1C(=O)c2cc(NC(=O)C3CCOCC3)ccc2OC[C@@H]2O[C@@H](CC(=O)NCc3ccc4c(c3)OCO4)CC[C@H]21` the relative growth was inactive: 0.983.
For `Cc1noc(C)c1S(=O)(=O)Nc1ccc2c(c1)C(=O)N([C@@H](C)CO)C[C@H](C)[C@H](CN(C)S(=O)(=O)c1cn(C)cn1)OCCCC[C@@H](C)O2`, the relative growth was inactive: 0.988.
In the case of `COC(=O)[C@H](Cc1ccccc1)N1CC2=C[C@@H](C3CC3)n3c(=O)n(C)c(=O)n3[C@H]2[C@@H]1[C@@H](O)CCn1cc(COc2ccccc2/C=C(C)/C=C/C(=O)NO)nn1`, the relative growth is reported as inactive: 0.963.
For `COc1cccc(NC(=O)N(C)C[C@H]2Oc3cc(C#Cc4ccncc4)ccc3S(=O)(=O)N([C@H](C)CO)C[C@@H]2C)c1`, the relative growth was inactive: 0.989.
With `C[C@@H]1CCCCO[C@@H](CN(C)Cc2ccc(Cl)c(Cl)c2)[C@@H](C)CN([C@@H](C)CO)C(=O)c2cc(NC(=O)c3ccccc3)ccc2O1` the relative growth was inactive: 0.992.
With `COc1ccc(S(=O)(=O)Nc2ccc3c(c2)C(=O)N([C@@H](C)CO)C[C@@H](C)[C@@H](CN(C)C(=O)Nc2ccc4c(c2)OCO4)OCCCC[C@H](C)O3)cc1` the relative growth was inactive: 1.03.
With `C[C@@H]1CCCCO[C@H](CN(C)C(=O)Nc2ccccc2)[C@H](C)CN([C@@H](C)CO)C(=O)c2cc(NC(=O)Nc3ccc(F)cc3)ccc2O1` the relative growth was inactive: 1.03.
`Cc1ccc(S(=O)(=O)Nc2cccc3c2O[C@@H](CN(C)C(=O)Nc2ccc(C(F)(F)F)cc2)[C@H](C)CN([C@@H](C)CO)C3=O)cc1` was tested, and the relative growth was inactive: 0.969.
With `O=C1C[C@@H](c2ccc(O[C@@H]3O[C@H](CO)[C@@H](O)[C@H](O)[C@H]3O)cc2)Oc2cc(O)ccc21` the relative growth was inactive: 0.995.
In the case of `C[C@@H]1CCCCO[C@H](CN(C)Cc2ccncc2)[C@@H](C)CN([C@H](C)CO)C(=O)c2cc(NS(=O)(=O)c3ccc(Cl)cc3)ccc2O1`, the relative growth is reported as inactive: 1.01.
`COc1ccc(C#Cc2cnc3c(c2)C(=O)N([C@@H](C)CO)C[C@H](C)[C@H](CN(C)C(=O)CN(C)C)O3)cc1` was tested, and the relative growth was inactive: 1.
For `COc1ccc(NC(=O)N(C)C[C@@H]2OCCCC[C@H](C)Oc3ccc(NC(=O)CCC(F)(F)F)cc3C(=O)N([C@H](C)CO)C[C@H]2C)cc1`, the relative growth was inactive: 0.754.
With `C[C@H](CO)N1C[C@H](C)[C@H](CN(C)S(=O)(=O)c2ccc(F)cc2)Oc2ccc(NS(=O)(=O)c3ccccc3)cc2C1=O` the relative growth was inactive: 0.941.
`C[C@@H]1CN([C@H](C)CO)C(=O)c2cc(C#CC3(O)CCCC3)cnc2O[C@H]1CN(C)C(=O)Cc1ccccc1` was tested, and the relative growth was inactive: 1.02.
`C[C@H]1CN([C@@H](C)CO)C(=O)c2cc(C#CCc3ccccc3)cnc2O[C@@H]1CN(C)C(=O)C1CCOCC1` was tested, and the relative growth was inactive: 1.03.
In the case of `O=c1c(-c2ccc(O)cc2)coc2c([C@H]3O[C@H](CO)[C@@H](O)[C@H](O)[C@H]3O)c(O)ccc12`, the relative growth is reported as inactive: 0.996.
For `C[C@@H]1CCCCO[C@H](CN(C)C)[C@@H](C)CN([C@H](C)CO)C(=O)c2cc(NC(=O)Nc3cccc4ccccc34)ccc2O1`, the relative growth was inactive: 0.99.
For `Cc1noc(C)c1NC(=O)Nc1ccc2c(c1)C(=O)N([C@@H](C)CO)C[C@H](C)[C@H](CN(C)Cc1ccc(-c3ccccc3)cc1)O2`, the relative growth was inactive: 1.01.
With `C[C@@H]1CCCCO[C@H](CN(C)S(=O)(=O)c2ccc(Cl)cc2)[C@H](C)CN([C@@H](C)CO)C(=O)c2cc(NS(=O)(=O)c3ccc(F)cc3)ccc2O1` the relative growth was inactive: 1.
In the case of `COC(=O)C1=C(C)NC(C)=C(C(=O)OC)C1`, the relative growth is reported as inactive: 1.
With `O=S(=O)(N1CCOCC1)N1CCCN(S(=O)(=O)N2CCOCC2)CC1` the relative growth was inactive: 0.988.
In the case of `C[C@@H]1CN([C@H](C)CO)C(=O)Cc2cc(NS(=O)(=O)c3cn(C)cn3)ccc2O[C@@H]1CN(C)CC1CC1`, the relative growth is reported as inactive: 0.985.
For `C[C@@H]1CCCCO[C@H](CN(C)C(=O)Nc2ccc(F)cc2)[C@@H](C)CN([C@@H](C)CO)C(=O)c2cc(NC(=O)CCC(F)(F)F)ccc2O1`, the relative growth was inactive: 0.965.
With `COc1ccc(C(=O)NCC#N)cc1` the relative growth was inactive: 1.03.
For `COc1cc(C(=O)OCCN2CCCN(CCOC(=O)c3cc(OC)c(OC)c(OC)c3)CC2)cc(OC)c1OC`, the relative growth was inactive: 0.983.
`C[C@@H]1CCCCO[C@H](CN(C)CC2CC2)[C@H](C)CN([C@@H](C)CO)C(=O)c2cc(NS(=O)(=O)c3cn(C)cn3)ccc2O1` was tested, and the relative growth was inactive: 1.
With `C[C@@H]1CN([C@@H](C)CO)C(=O)c2cc(NC(=O)NC3CCCCC3)ccc2O[C@@H](C)CCCCO[C@@H]1CN(C)S(=O)(=O)c1ccc(F)cc1` the relative growth was inactive: 1.03.
For `C[C@@H]1CN([C@@H](C)CO)C(=O)c2cc(NC(=O)Nc3ccc(F)cc3)ccc2O[C@@H](C)CCCCO[C@H]1CN(C)S(=O)(=O)c1ccccc1`, the relative growth was inactive: 1.05.
`C[C@@H]1CN([C@@H](C)CO)S(=O)(=O)c2ccc(-c3cccnc3)cc2O[C@@H]1CN(C)C(=O)c1ccc2c(c1)OCO2` was tested, and the relative growth was inactive: 1.02.
`O=C(O)c1n[nH]c2c1C[C@H]1C[C@@H]21` was tested, and the relative growth was inactive: 0.977.
With `C[C@H]1CN([C@@H](C)CO)C(=O)c2cc(C3=CCCC3)cnc2O[C@H]1CN(C)S(=O)(=O)c1cn(C)cn1` the relative growth was inactive: 1.03.
In the case of `C[C@@H]1CCCCO[C@@H](CN(C)Cc2ccc3c(c2)OCO3)[C@H](C)CN([C@H](C)CO)C(=O)c2cc(NC(=O)NC3CCCCC3)ccc2O1`, the relative growth is reported as inactive: 1.02.
`C[C@@H]1CN([C@@H](C)CO)C(=O)c2c(c3ccccc3n2C)-c2ccccc2CO[C@@H]1CN(C)S(C)(=O)=O` was tested, and the relative growth was inactive: 0.976.
In the case of `C[C@@H]1CCCCO[C@@H](CN(C)C(=O)NC2CCCCC2)[C@H](C)CN([C@@H](C)CO)C(=O)c2cc(NS(=O)(=O)c3ccccc3)ccc2O1`, the relative growth is reported as inactive: 1.01.
